Experimental data as given in PubChem BioAssay AID445 (National Center for Advancing Translational Sciences (NCATS), 2006).
Hit rate of the full screen: of about 110,000 compounds, about 40 (0.04%) were called active. The shares of active, inactive and inconclusive entries below differ from those in the screen. Calls follow the shape of the dose curve; as a rule, active = well fitted curve in the direction sought with a large enough effect in the signal ratio (not every such curve was filed as active); inconclusive = small, poorly fitted or top-dose-only effect, or a change in a side signal; inactive = flat fitted curve, though single readings scatter; the % refers to the signal ratio. A potency beside an inconclusive call is a rough fit, not a confirmed value.

test: IkB Signaling; conditions: ABC-DLBCL IkBa-CBG/CBR dual luciferase ratio (green luciferase fused to IkBa over red control in OCI-Ly3 lymphoma cells), 4 h; IkBa stabilization activation: at 57.1 µM (top of the series), scaled: untreated 0%, proteasome inhibitor 100% unless noted;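 as to IkBa stabilization activation: 0% = basal untreated cells and 100% = reference inhibitor full response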
Summary of the method: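 Curves were fitted separately to fusion (green), unfused (red) and ratio luminescence, then classed by r2, magnitude and activity. Cells: OCI-Ly3, 4 h compound plus doxycycline at 37C; 10 uM MG-132 defined full response.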
Potency is read from the fitted curve at half-maximal effect.

Row | Compound | IkBa stabilization activation | Potency
1 | Cn1c2ccccc2c2ncn(Cc3ccco3)c(=O)c21 | inactive | 
2 | COc1cccc(NCc2cccn2-c2nnc(N3CCC(C)CC3)s2)c1 | inconclusive: 0.439% [signal inhibitor] | 
3 | CCC(C)NC(=O)CN1C(=O)c2cccnc2Sc2ccccc21 (centres undefined) | inconclusive: 1.59% [signal inhibitor] | 
4 | Cc1noc(C)c1-c1ccc2ncnc(NC3CCNCC3)c2c1 | inconclusive: 7.2% [signal activator] [at 11.4 µM, scaled: untreated 0%, proteasome inhibitor 100%] | 
5 | NS(=O)(=O)c1ccc(N=Nc2cc3ccccc3c(C(=O)O)c2O)cc1 | inconclusive: 0.0466% [signal inhibitor] [at 11.4 µM, scaled: untreated 0%, proteasome inhibitor 100%] | 
6 | Cc1ccc(-c2nc3ccccc3[nH]2)s1 | inconclusive: 8.23% [signal inhibitor] | 
7 | COC(=O)c1ccc([C@@H]2Nc3c(OC)ccc(C)c3[C@@H]3C=CC[C@@H]32)cc1 | inconclusive: 16.7% [signal inhibitor] | 
8 | Cc1ccc(C(=O)OCC(=O)Nc2ccccc2)cc1NC(=O)c1ccco1 | inconclusive: 18% [signal inhibitor] | 
9 | COc1ccc(C(=O)Nc2cccc(C(=O)OCc3cc(=O)n4nc(C5CC5)sc4n3)c2)cc1 |  | inconclusive: 5.01 µM [signal inhibitor, partial curve]
10 | Cc1nn(-c2ccccc2)c2[nH]c(C(F)(F)F)cc(=O)c12 | inconclusive: 2.33% [signal inhibitor] | 
11 | Cc1ccc(-c2cc(C(=O)N3CCOCC3)c3ccccc3n2)cc1 | inactive | 
12 | COc1cccc2c(=O)cc(C)n(CC(=O)Nc3ccc(C)c(C)c3)c12 | inconclusive: 4.71% [signal inhibitor] | 
13 | Cc1ccc2cc(C)c(N3CCN(c4ccccn4)CC3)nc2c1 | inconclusive: -0.662% [signal inhibitor] | 
14 | O=C(NCc1csc(-c2ccccc2)n1)c1ccco1 | inconclusive: 12.3% [signal inhibitor] | 
15 | CCOC(=O)c1ccc(NC(=O)c2cnn3c(=O)c4c(n(CC)c23)CCN(Cc2ccc(OC)cc2)C4)cc1 | inconclusive: 1.18% [signal inhibitor] | 
16 | CC1CCN(S(=O)(=O)N2CCC(C(=O)NCc3ccccc3Cl)CC2)CC1 | inconclusive: -1.4% [signal inhibitor] | 
17 | CC1=C(/C=C/C(C)=C/C=C/C(C)=C/CO)C(C)(C)CCC1 | inconclusive: 14.8% [signal activator] | 
18 | COc1ccc(C2c3[nH]c4ccccc4c3CCN2C(=O)CCC2CCCC2)cc1 (centres undefined) | inconclusive: -0.152% [signal inhibitor] | 
19 | Cc1ccsc1CCN1C(=O)N(c2ccccc2)C(=O)C1CC(=O)Nc1ccc(Cl)cc1 (centres undefined) | inconclusive: 1.32% [signal inhibitor] | 
20 | N#CCSc1ncnc2sc3c(c12)CCC3 | inactive | 
21 | CCn1c(C)csc1=NC(=O)c1ccccc1O | inactive | 

Row | Compound | IkBa stabilization activation | Potency
22 | CCN(CC)C(=O)c1sc2c(c1C)c(=O)n(Cc1ccccc1)c(=O)n2Cc1ccccc1C | inconclusive: -0.0261% [signal inhibitor] | 
23 | CCOc1ccc(C2c3c(oc4ccccc4c3=O)C(=O)N2CCCN2CCOCC2)cc1 (centres undefined) | inactive | 
24 | COC(=O)C1C(=O)C2=C(CC1C)NC(C)=C(C(=O)OCCOc1ccccc1)C2c1ccc(C)o1 (centres undefined) | inconclusive: 10.9% [signal inhibitor] | 
25 | CC(=O)c1cccc(NC(=O)Nc2sc3nc4n(c(=O)c3c2C)CCC(C)CC4)c1 (centres undefined) | inconclusive: 0.694% [signal inhibitor] | 
26 | COc1ccc(Cn2cc(S(=O)(=O)c3ccc(C)cc3)c(=O)c3cc(F)ccc32)cc1 | inconclusive: 2.46% [signal inhibitor] | 
27 | CCCc1cc(=O)oc2cc(C)cc(OCc3nn[nH]n3)c12 | inactive | 
28 | COc1ccc2c(CNCCc3ccc(SC)cc3)c(C(=O)O)n(Cc3ccc(F)cc3)c2c1 | inconclusive: -0.966% [signal inhibitor] | 
29 | Cc1cccc(CN2C(=O)c3ccccc3Sc3ccc(C(=O)NCc4ccco4)cc32)c1 | inconclusive: 1.02% [signal inhibitor] | 
30 | CCS(=O)(=O)c1ncc(Cl)c(C(=O)N2CCN(c3ccc(OC)cc3)CC2)n1 |  | inconclusive: 5.01 µM [rising, single point]
31 | O=c1c2ccccc2nc(/C=C/c2cccc3ccccc23)n1-c1ccc(F)cc1F | inconclusive: 1.56% [signal inhibitor] | 
32 | CCC(Sc1nc2c(sc3ccccc32)c(=O)n1CCc1ccc(OC)c(OC)c1)C(=O)N(CC)CC (centres undefined) | inconclusive: -2.73% [signal inhibitor] | 
33 | CCOc1ccc(NC(=O)CSC2=Nc3ccccc3C3=NC(CC(=O)NCc4cccs4)C(=O)N23)cc1 (centres undefined) | inconclusive: -0.462% [signal inhibitor] | 
34 | O=C1CCCC2=C1C(c1ccco1)Nc1ccc3ccccc3c12 (centres undefined) | inactive | 
35 | Cc1ccc(-c2cn3c(n2)sc2cc(C(=O)NCCCN4CCCCCC4)ccc23)cc1 | inconclusive: 1.45% [signal inhibitor] | 
36 | Cc1cccc(N2CCN(C(=O)Cn3sc4nc(C)cc(C)c4c3=O)CC2C)c1 (centres undefined) | inconclusive: 3.25% [signal inhibitor] | 
37 | CCCN(CCC)C(=O)c1cc2c(=O)n3cccc(C)c3nc2s1 | inactive | 
38 | CC1=C(c2ccc(C)c(C)c2)S(=O)(=O)N=C1N1CCC(C(=O)NC(C)c2ccccc2)CC1 (centres undefined) | inconclusive: 3.11% [signal inhibitor] | 
39 | CC(CCc1ccccc1)NC(=O)Cn1c(=O)nc(-c2ccccc2)c2cc(Cl)ccc21 (centres undefined) | inconclusive: 2.14% [signal inhibitor] | 
40 | CCc1ccc2oc(C(=O)N(Cc3ccc(N(C)C)cc3)Cc3ccco3)c(C)c2c1 | inconclusive: -1.57% [signal inhibitor] | 
41 | O=C1c2ccccc2-c2onc3c(N4CCN(C5CCCCC5)CC4)cc(NCCO)c1c23 | inconclusive: 2.23% [signal inhibitor] | 
42 | COc1ccc(CNC(=O)Cc2c(C(=O)O)c(C)cn2C)cc1 | inactive | 

Row | Compound | IkBa stabilization activation | Potency
43 | CSc1ccccc1N=Cc1nc(-c2ccccc2)oc1O | inconclusive: 5.57% [signal inhibitor] | 
44 | Cc1c(-c2ccccc2)c(=O)oc2ccc(OC(=O)N3CCOCC3)cc12 | inconclusive: -0.864% [signal inhibitor] | 
45 | Cc1cc(C)cc(OCCSc2nc3ccc(NC(=O)c4cccs4)cc3s2)c1 | inconclusive: -0.313% [signal inhibitor] | 
46 | CCOc1ccc(C(=O)Nc2c(C(=O)Nc3ccccc3OC)oc3ccccc23)cc1OCC | inactive | 
47 | COC(=O)C1=CNC=C(C(=O)OC)C1c1ccc(Cl)cc1 | inactive | 
48 | O=C(Cn1cc(C(=O)C2CCCCC2)c2ccccc21)Nc1ccccc1Cl | inconclusive: 12% [signal inhibitor] | 
49 | Nn1c(SCC(=O)NC2CCCCC2)nnc1-c1ccccc1 | inconclusive: 6.43% [signal inhibitor] | 
50 | COc1ccc(CCNC(=O)c2ccc3c(c2)sc2nc(-c4ccccc4)cn23)cc1OC | inconclusive: 1.47% [signal inhibitor] | 
51 | CCOC(=O)c1cc(-c2ccc(OC)cc2)n(CCC(=O)NCCc2ccccc2)c1C | inconclusive: -3.17% [signal inhibitor] | 
52 | COc1ccc(Cc2nnc3n2N=C(c2cc4ccccc4o2)CS3)cc1OC | inconclusive: 1.59% [signal inhibitor] | 
53 | CCOc1ccc(NC(=O)c2ccco2)cc1 | inactive | 
54 | CCC(C)C(NC(=O)c1ccccc1NC(=O)c1ccc(OC)cc1)C(=O)NCc1ccco1 (centres undefined) | inconclusive: 1.62% [signal inhibitor] | 
55 | Cc1cc(OCC(=O)NCCc2nc3ccccc3[nH]2)cc(C)c1Cl |  | inconclusive: 31.6 µM [signal inhibitor]
56 | Cc1cccc(S(=O)(=O)Nc2nc3ccccc3nc2NCc2ccco2)c1 | inconclusive: 12.6% [signal inhibitor] | 
57 | Cc1ccc(CNC(=O)Cn2c(SCC(=O)Nc3ccc(F)cc3)nc3ccccc32)cc1 | inconclusive: 0.657% [signal inhibitor] | 
58 | COc1ccccc1Cc1nc(-c2ccc(Br)o2)no1 |  | inconclusive: 20 µM [signal inhibitor, partial curve]
59 | Cc1ccc(CNC(=O)C(C)n2c(=O)cc(C(F)(F)F)c3c(C)nn(C)c32)cc1 (centres undefined) | inconclusive: 0.134% [signal inhibitor] | 
60 | CCn1nc(C)c(CCN(C)C(=O)Nc2cccc(Cl)c2C)c1C | inactive | 
61 | Cc1cc(C)c(S(=O)(=O)NCCS(=O)(=O)N2CCN(c3ccccc3)CC2)c(C)c1 | inconclusive: -0.19% [signal inhibitor] | 
62 | COc1cccc(Nc2nc3cc(C)ccc3nc2NS(=O)(=O)c2ccc(Cl)cc2)c1 | inactive | 
63 | NC1=NC(c2cn(-c3ccccc3)nc2-c2cccs2)n2c(nc3ccccc32)N1 (centres undefined) | inconclusive: 0.609% [signal inhibitor] | 

Row | Compound | IkBa stabilization activation | Potency
64 | COC(=O)c1ccccc1NC(=O)Cn1cnc2sc(C)c(S(=O)(=O)N3CCC(C)CC3)c2c1=O |  | inconclusive: 3.98 µM [signal inhibitor]
65 | COc1ccc(NC(=O)/C=C\C(=O)N(c2ccc(C(C)C)cc2)C(C(=O)NCc2ccco2)c2ccc(C)cc2)cc1 (centres undefined) | inconclusive: 1.42% [signal inhibitor] | 
66 | CCOc1ccc(C2C(=O)N(C3CCCCCC3)CC(=O)N2Cc2ccccc2)cc1OC (centres undefined) | inactive | 
67 | Cc1cc(C(=O)CSc2nncs2)c(C)n1-c1c(C)n(C)n(-c2ccccc2)c1=O | inactive | 
68 | O=C(Nc1cnc2ccccc2c1)N1CCOCC1 | inactive | 
69 | CC(=O)NCCNc1nc(-c2cccc(C#N)c2)nc2ccccc12 | inactive: -0.802% [at 11.4 µM, scaled: untreated 0%, proteasome inhibitor 100%] | 
70 | CN1CCN(CCC=C2c3ccccc3Sc3ccc(S(=O)(=O)N(C)C)cc32)CC1 | inactive | 
71 | CCN(CC)c1ccc(-c2nc3cnccc3n2C)cc1 | inactive | 
72 | O=C(N1CCN(c2ccccc2F)CC1)C12CC3CC(CC(C3)C1)C2 | inconclusive: 2.81% [signal inhibitor] | 
73 | CCc1ccc(CNC(=O)CCCn2ccc3cc(S(=O)(=O)N4CCCC4)ccc32)cc1 | inconclusive: -1.78% [signal inhibitor] | 
74 | Cn1c(=O)c(C(=O)Nc2cnccn2)c(O)c2ccccc21 | inconclusive: 3.94% [signal inhibitor] | 
75 | CCOc1ccc(CCNC(=O)c2cc3c(-c4ccccc4F)nn(C)c3s2)cc1 | inconclusive: 2.54% [signal inhibitor] | 
76 | Cc1ccc(S(=O)(=O)c2nc(-c3ccc(F)cc3)oc2SCC(=O)NC2CCCCC2)cc1 | inconclusive: 2.23% [signal inhibitor] | 
77 | CCS(=O)(=O)N1CCc2cc(C(=O)NCc3ccccc3OC)ccc21 | inconclusive: -0.465% [signal inhibitor] | 
78 | COc1cccc(NC(=O)C2CCC(CNS(=O)(=O)c3ccc4c(c3)CCCC(=O)N4)CC2)c1 (centres undefined) |  | inconclusive: 20 µM [signal inhibitor]
79 | COc1cccc(NC(=O)C2CCN(c3ccc(Sc4ccc(C)cc4)nn3)CC2)c1 | inconclusive: 4.45% [signal inhibitor] | 
80 | COc1ccc(F)cc1S(=O)(=O)n1cc(C)nc1-c1ccccc1 | inactive | 
81 | Cc1nnc(SCC(=O)n2c3c(c4ccccc42)CCCC3)s1 | inconclusive: 8.74% [signal inhibitor] | 
82 | CCc1ccc2oc(-c3ccc(C)c(NC(=O)/C=C/c4ccco4)c3)nc2c1 |  | inconclusive: 0.794 µM [signal inhibitor, full curve]
83 | Cc1sc2ncn(CC(=O)N3CCN(c4ccccc4F)CC3)c(=O)c2c1S(=O)(=O)N1CCC(C)CC1 | inconclusive: 9.73% [signal inhibitor] | 
84 | Cc1ccc2nc(/C(C#N)=C/c3ccccc3F)[nH]c2c1 | inconclusive: 16.9% [signal inhibitor] | 
